# Results: the supplement of paper PMC10037445
# The full ranking holds about 2,900 compounds; the median of “NF-kB SEAP reporter activity, fold change vs agonist alone” is about 0.99, and the highest 2% start at about 2.6. The list shows a part of the results.
# Tests used:
# RAW-Dual [1] = assay: NF-kB SEAP reporter activity, fold change vs agonist alone; cytotoxicity flag (confluency mask): not cytotoxic; higher = enhanced NF-kB activity
# In short: (§1)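 RAW-Dual macrophages (50,000 cells/well in DMEM, 384-well plates) received 50 nL of library stock by pin tool, then a PRR agonist 1 h later, and were kept at 37 °C, 5% CO2. After 20 hours, supernatant was read for IRF by QuantiLuc luminescence and for NF-κB by QuantiBlue absorbance at 620 nm. Reporter activity is fold change over agonist-alone wells. Cytotoxic wells had IncuCyte confluency below 70% of agonist controls in both mask sets.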
# RAW-Dual [2] = assay: NF-kB SEAP reporter activity, fold change vs agonist alone; higher = enhanced NF-kB activity; conditions: cytotoxicity flag (confluency mask): not cytotoxic
# In short: as §1
# [3] = agonist: ODN 1826 (TLR9) 0.5 ug/mL
# [4] = agonist: Pam2CSK4 (TLR2/6) 0.1 ug/mL
# [5] = agonist: Pam3CSK4 (TLR2/1) 0.1 ug/mL
# [6] = library stock concentration (final ~1000-fold dilution): 10 mM, agonist: Imiquimod (TLR7) […]
# [7] = library stock concentration (final ~1000-fold dilution): 10 mM, agonist: MPLA (TLR4) […]
structure (smiles),measurement,setting,value
CC#CC(=O)N1CCC(n2c(=O)n(-c3ccc(Oc4ccccc4)cc3)c3c(N)ncnc32)C1.Cl (stereo unspecified) (library stock concentration (final ~1000-fold dilution): 10 mM),NF-kB SEAP reporter activity,RAW-Dual [1]; agonist: LPS (TLR4) 0.1 ug/mL,0.647
same,NF-kB SEAP reporter activity,RAW-Dual [1]; [3],0.662
same,NF-kB SEAP reporter activity,RAW-Dual [1]; [4],0.378
same,NF-kB SEAP reporter activity,RAW-Dual [1]; [5],0.517
CN1CCN(c2ccc(-c3ccncc3-c3cc(F)c(O)c(F)c3)cc2)CC1,NF-kB SEAP reporter activity,RAW-Dual [2]; [6],0.71
same,NF-kB SEAP reporter activity,RAW-Dual [2]; [7],0.621
CN1CCN(c2ccc(-c3ccncc3-c3cc(F)c(O)c(F)c3)cc2)CC1 (library stock concentration (final ~1000-fold dilution): 10 mM),NF-kB SEAP reporter activity,RAW-Dual [1]; agonist: LPS (TLR4) 0.1 ug/mL,0.68
same,NF-kB SEAP reporter activity,RAW-Dual [1]; [3],0.462
same,NF-kB SEAP reporter activity,RAW-Dual [1]; [4],0.553
same,NF-kB SEAP reporter activity,RAW-Dual [1]; [5],0.601
COc1ccc(-c2coc3cc(O)ccc3c2=O)cc1S(=O)(=O)O,NF-kB SEAP reporter activity,RAW-Dual [2]; [6],0.962
same,NF-kB SEAP reporter activity,RAW-Dual [2]; [7],1.03
COc1ccc(-c2coc3cc(O)ccc3c2=O)cc1S(=O)(=O)O (library stock concentration (final ~1000-fold dilution): 10 mM),NF-kB SEAP reporter activity,RAW-Dual [1]; agonist: LPS (TLR4) 0.1 ug/mL,0.994
same,NF-kB SEAP reporter activity,RAW-Dual [1]; [3],1.06
same,NF-kB SEAP reporter activity,RAW-Dual [1]; [4],1.15
same,NF-kB SEAP reporter activity,RAW-Dual [1]; [5],1
C=CC(=O)N1CCC(Oc2cc3c(Nc4ccc(Cl)c(Cl)c4F)ncnc3cc2OC)CC1,NF-kB SEAP reporter activity,RAW-Dual [2]; [6],0.323
same,NF-kB SEAP reporter activity,RAW-Dual [2]; [7],0.555
C=CC(=O)N1CCC(Oc2cc3c(Nc4ccc(Cl)c(Cl)c4F)ncnc3cc2OC)CC1 (library stock concentration (final ~1000-fold dilution): 10 mM),NF-kB SEAP reporter activity,RAW-Dual [1]; agonist: LPS (TLR4) 0.1 ug/mL,0.256
same,NF-kB SEAP reporter activity,RAW-Dual [1]; [3],0.215
same,NF-kB SEAP reporter activity,RAW-Dual [1]; [4],0.187
same,NF-kB SEAP reporter activity,RAW-Dual [1]; [5],0.26
CC(NC(=O)C(O)C(C)C)C(=O)NC1C(=O)N(C)CCc2ccccc21 (stereo unspecified) (library stock concentration (final ~1000-fold dilution): 10 mM),NF-kB SEAP reporter activity,RAW-Dual [1]; agonist: LPS (TLR4) 0.1 ug/mL,1.24
same,NF-kB SEAP reporter activity,RAW-Dual [1]; [3],0.905
same,NF-kB SEAP reporter activity,RAW-Dual [1]; [4],1.07
same,NF-kB SEAP reporter activity,RAW-Dual [1]; [5],0.882
CC(NC(=O)C(O)C(C)C)C(=O)NC1C(=O)N(C)CCc2ccccc21 (stereo unspecified),NF-kB SEAP reporter activity,RAW-Dual [2]; [6],0.775
same,NF-kB SEAP reporter activity,RAW-Dual [2]; [7],1.08
NC(=O)c1noc(C(CCCC2CCCCC2)CC(=O)NO)n1 (stereo unspecified),NF-kB SEAP reporter activity,RAW-Dual [2]; [6],0.905
same,NF-kB SEAP reporter activity,RAW-Dual [2]; [7],0.709
NC(=O)c1noc(C(CCCC2CCCCC2)CC(=O)NO)n1 (stereo unspecified) (library stock concentration (final ~1000-fold dilution): 10 mM),NF-kB SEAP reporter activity,RAW-Dual [1]; agonist: LPS (TLR4) 0.1 ug/mL,0.635
same,NF-kB SEAP reporter activity,RAW-Dual [1]; [3],0.558
same,NF-kB SEAP reporter activity,RAW-Dual [1]; [4],0.367
same,NF-kB SEAP reporter activity,RAW-Dual [1]; [5],0.209
CN1CCc2nc(C(=O)NC3CC(C(=O)N(C)C)CCC3NC(=O)C(=O)Nc3ccc(Cl)cn3)sc2C1.Cc1ccc(S(=O)(=O)O)cc1.O (stereo unspecified) (library stock concentration (final ~1000-fold dilution): 10 mM),NF-kB SEAP reporter activity,RAW-Dual [1]; agonist: LPS (TLR4) 0.1 ug/mL,1.02
same,NF-kB SEAP reporter activity,RAW-Dual [1]; [3],1.02
same,NF-kB SEAP reporter activity,RAW-Dual [1]; [4],1.01
same,NF-kB SEAP reporter activity,RAW-Dual [1]; [5],1.31
CN1CCc2nc(C(=O)NC3CC(C(=O)N(C)C)CCC3NC(=O)C(=O)Nc3ccc(Cl)cn3)sc2C1.Cc1ccc(S(=O)(=O)O)cc1.O (stereo unspecified),NF-kB SEAP reporter activity,RAW-Dual [2]; [6],0.978
same,NF-kB SEAP reporter activity,RAW-Dual [2]; [7],1.04
CN1CCN(C2=Nc3cc(Cl)ccc3Nc3ccccc32)CC1,NF-kB SEAP reporter activity,RAW-Dual [2]; [6],1.2
same,NF-kB SEAP reporter activity,RAW-Dual [2]; [7],1.2
CN1CCN(C2=Nc3cc(Cl)ccc3Nc3ccccc32)CC1 (library stock concentration (final ~1000-fold dilution): 10 mM),NF-kB SEAP reporter activity,RAW-Dual [1]; agonist: LPS (TLR4) 0.1 ug/mL,0.936
same,NF-kB SEAP reporter activity,RAW-Dual [1]; [3],0.6
same,NF-kB SEAP reporter activity,RAW-Dual [1]; [4],0.682
same,NF-kB SEAP reporter activity,RAW-Dual [1]; [5],0.809
CCC(=O)OC(OP(=O)(CCCCc1ccccc1)CC(=O)N1CC(C2CCCCC2)CC1C(=O)O)C(C)C (stereo unspecified),NF-kB SEAP reporter activity,"RAW-Dual [2]; library stock concentration (final ~1000-fold dilution): 10 mM water, agonist: Imiquimod (TLR7) […]",0.795
same,NF-kB SEAP reporter activity,"RAW-Dual [2]; library stock concentration (final ~1000-fold dilution): 10 mM water, agonist: MPLA (TLR4) […]",0.935
CCC(=O)OC(OP(=O)(CCCCc1ccccc1)CC(=O)N1CC(C2CCCCC2)CC1C(=O)O)C(C)C (stereo unspecified) (library stock concentration (final ~1000-fold dilution): 10 mM water),NF-kB SEAP reporter activity,RAW-Dual [1]; agonist: LPS (TLR4) 0.1 ug/mL,0.941
same,NF-kB SEAP reporter activity,RAW-Dual [1]; [3],1.05
same,NF-kB SEAP reporter activity,RAW-Dual [1]; [4],1.01
same,NF-kB SEAP reporter activity,RAW-Dual [1]; [5],0.946
Cc1c(Cc2ccc3ccccc3n2)c2cc(F)ccc2n1CC(=O)O (library stock concentration (final ~1000-fold dilution): 10 mM),NF-kB SEAP reporter activity,RAW-Dual [1]; agonist: LPS (TLR4) 0.1 ug/mL,1.03
same,NF-kB SEAP reporter activity,RAW-Dual [1]; [3],1.01
same,NF-kB SEAP reporter activity,RAW-Dual [1]; [4],1.07
same,NF-kB SEAP reporter activity,RAW-Dual [1]; [5],1.04
Cc1c(Cc2ccc3ccccc3n2)c2cc(F)ccc2n1CC(=O)O,NF-kB SEAP reporter activity,RAW-Dual [2]; [6],1.06
same,NF-kB SEAP reporter activity,RAW-Dual [2]; [7],1.07
NC12CC3CC(CC(C3)C1)C2 (library stock concentration (final ~1000-fold dilution): 2 mM),NF-kB SEAP reporter activity,RAW-Dual [1]; agonist: LPS (TLR4) 0.1 ug/mL,1.08
same,NF-kB SEAP reporter activity,RAW-Dual [1]; [3],0.905
same,NF-kB SEAP reporter activity,RAW-Dual [1]; [4],1.02
same,NF-kB SEAP reporter activity,RAW-Dual [1]; [5],1.19
NC12CC3CC(CC(C3)C1)C2,NF-kB SEAP reporter activity,"RAW-Dual [2]; library stock concentration (final ~1000-fold dilution): 2 mM, agonist: MPLA (TLR4) […]",1.1
CC(C)(C)c1cc(C(=O)/C(C#N)=N/Nc2cccc(Cl)c2)no1 (library stock concentration (final ~1000-fold dilution): 10 mM),NF-kB SEAP reporter activity,RAW-Dual [1]; agonist: LPS (TLR4) 0.1 ug/mL,4.18
COC(c1ccccc1)(c1ccccc1)C(Oc1nc(C)cc(C)n1)C(=O)O (stereo unspecified),NF-kB SEAP reporter activity,RAW-Dual [2]; [6],0.886
same,NF-kB SEAP reporter activity,RAW-Dual [2]; [7],0.984
COC(c1ccccc1)(c1ccccc1)C(Oc1nc(C)cc(C)n1)C(=O)O (stereo unspecified) (library stock concentration (final ~1000-fold dilution): 10 mM),NF-kB SEAP reporter activity,RAW-Dual [1]; agonist: LPS (TLR4) 0.1 ug/mL,1.02
same,NF-kB SEAP reporter activity,RAW-Dual [1]; [3],0.988
same,NF-kB SEAP reporter activity,RAW-Dual [1]; [4],0.873
same,NF-kB SEAP reporter activity,RAW-Dual [1]; [5],1.14
Cc1cc(=O)n(-c2ccccc2)n1C (library stock concentration (final ~1000-fold dilution): 10 mM),NF-kB SEAP reporter activity,RAW-Dual [1]; agonist: LPS (TLR4) 0.1 ug/mL,1.03
same,NF-kB SEAP reporter activity,RAW-Dual [1]; [3],1.03
same,NF-kB SEAP reporter activity,RAW-Dual [1]; [4],0.928
same,NF-kB SEAP reporter activity,RAW-Dual [1]; [5],1.28
Cc1cc(=O)n(-c2ccccc2)n1C,NF-kB SEAP reporter activity,RAW-Dual [2]; [6],1.1
same,NF-kB SEAP reporter activity,RAW-Dual [2]; [7],1.05
